In the supplement of paper PMC8728848:
This is one part of the list.

Tests used:
Test in all cases: glycan array binding signal (z-score within array); higher = stronger binding
Conditions in all cases: glycan notation: IUPAC condensed, linker removed
[1] = target: Gal(b1-4)GlcNAc(b1-3)Gal(b1-4)GlcNAc(b1-3)Gal(b1-4)GlcNAc
Method in brief: (§1)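 The binding signal is a Z-score computed within each array. Data were drawn from 3228 arrays in the Consortium for Functional Glycomics database, restricted to those with a known protein sequence. Scores were averaged over arrays of the same protein sequence at different concentrations or buffers, and over linkers, and negative values can be taken as non-binding.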

[2] = target: Gal(b1-4)GlcNAc(b1-3)Gal(b1-4)[Fuc(a1-3)]GlcNAc(b1-3)Gal(b1-4)[Fuc(a1-3)]GlcNAc
Method in brief: as §1

[3] = target: Gal(b1-4)GlcNAc(b1-3)GalNAc
Method in brief: as §1

[4] = target: Gal(b1-4)GlcNAc(b1-3)[Gal(b1-4)GlcNAc(b1-6)]Gal(b1-4)GlcNAc
Method in brief: as §1

[5] = target: Gal(b1-4)GlcNAc(b1-3)[GlcNAc(b1-6)]Gal(b1-4)GlcNAc
Method in brief: as §1

[6] = target: Gal(b1-4)GlcNAc(b1-6)Gal(b1-4)GlcNAc
Method in brief: as §1

[7] = target: Gal(b1-4)GlcNAc(b1-6)Gal(b1-4)GlcNAc(b1-6)GalNAc
Method in brief: as §1

[8] = target: Gal(b1-4)GlcNAc(b1-6)GalNAc
Method in brief: as §1

[9] = target: Gal(b1-4)GlcNAc(b1-6)[Gal(b1-3)]GalNAc
Method in brief: as §1

Gal3S(b1-3)GalNAc = target: Gal3S(b1-3)GalNAc
Method in brief: as §1

Gal3S(b1-3)GlcNAc = target: Gal3S(b1-3)GlcNAc
Method in brief: as §1

[10] = target: Gal3S(b1-3)[Fuc(a1-4)]GlcNAc
Method in brief: as §1

Gal3S(b1-4)Glc = target: Gal3S(b1-4)Glc
Method in brief: as §1

Gal3S(b1-4)Glc6S = target: Gal3S(b1-4)Glc6S
Method in brief: as §1

Gal3S(b1-4)GlcNAc = target: Gal3S(b1-4)GlcNAc
Method in brief: as §1

Gal3S(b1-4)GlcNAc6S = target: Gal3S(b1-4)GlcNAc6S
Method in brief: as §1

[11] = target: Gal3S(b1-4)[Fuc(a1-3)]Glc
Method in brief: as §1

Gal3S4S(b1-4)GlcNAc = target: Gal3S4S(b1-4)GlcNAc
Method in brief: as §1

Gal3S6S(b1-4)GlcNAc = target: Gal3S6S(b1-4)GlcNAc
Method in brief: as §1

Gal3S6S(b1-4)GlcNAc6S = target: Gal3S6S(b1-4)GlcNAc6S
Method in brief: as §1

Gal4S(b1-4)GlcNAc = target: Gal4S(b1-4)GlcNAc
Method in brief: as §1

Gal4S6S(b1-4)GlcNAc = target: Gal4S6S(b1-4)GlcNAc
Method in brief: as §1

Gal6S(b1-4)Glc = target: Gal6S(b1-4)Glc
Method in brief: as §1

Gal6S(b1-4)Glc6S = target: Gal6S(b1-4)Glc6S
Method in brief: as §1

Gal6S(b1-4)GlcNAc = target: Gal6S(b1-4)GlcNAc
Method in brief: as §1

Gal6S(b1-4)GlcNAc6S = target: Gal6S(b1-4)GlcNAc6S
Method in brief: as §1

GalNAc(a1-3)Gal = target: GalNAc(a1-3)Gal
Method in brief: as §1

GalNAc(a1-3)GalNAc = target: GalNAc(a1-3)GalNAc
Method in brief: as §1

GalNAc(b1-3)Gal = target: GalNAc(b1-3)Gal
Method in brief: as §1

[12] = target: GalNAc(b1-3)Gal(a1-4)Gal(b1-4)GlcNAc
Method in brief: as §1

GalNAc(b1-3)GalNAc = target: GalNAc(b1-3)GalNAc
Method in brief: as §1

GalNAc(b1-4)GlcNAc = target: GalNAc(b1-4)GlcNAc
Method in brief: as §1

Glc(a1-4)Glc = target: Glc(a1-4)Glc
Method in brief: as §1

Glc(a1-6)Glc(a1-6)Glc = target: Glc(a1-6)Glc(a1-6)Glc
Method in brief: as §1

Glc(b1-4)Glc = target: Glc(b1-4)Glc
Method in brief: as §1

Glc(b1-6)Glc = target: Glc(b1-6)Glc
Method in brief: as §1

GlcA(b1-3)Gal = target: GlcA(b1-3)Gal
Method in brief: as §1

GlcA(b1-3)GlcNAc = target: GlcA(b1-3)GlcNAc
Method in brief: as §1

GlcA(b1-6)Gal = target: GlcA(b1-6)Gal
Method in brief: as §1

[13] = target: GlcNAc(a1-3)Gal(b1-4)GlcNAc
Method in brief: as §1

[14] = target: GlcNAc(a1-6)Gal(b1-4)GlcNAc
Method in brief: as §1

[15] = target: GlcNAc(b1-2)Gal(b1-3)GalNAc
Method in brief: as §1

[16] = target: GlcNAc(b1-2)Man(a1-3)[GlcNAc(b1-2)Man(a1-6)]Man(b1-4)GlcNAc(b1-4)GlcNAc
Method in brief: as §1

GlcNAc(b1-3)Gal = target: GlcNAc(b1-3)Gal
Method in brief: as §1

[17] = target: GlcNAc(b1-3)Gal(b1-3)GalNAc
Method in brief: as §1

B1: MD-2 (Homo sapiens) (protein)
chain: MLPFLFFSTLFSSIFTEAQKQYWVCNSSDASISYTYCDKMQYPISINVNPCIELKGSKGLLHIFYIPRRDLKQLYFNLYITVNTMNLPKRKEVICRGSDDDYSFCRALKGETVNTTISFSFKGIKFSKGKYKCVVEAISGSPEEMLFCLEFVILHQPNSN
- glycan array binding signal (z-score) [1]: 0.742
- glycan array binding signal (z-score) [2]: -0.215
- glycan array binding signal (z-score) [3]: -0.391
- glycan array binding signal (z-score) [4]: -0.336
- glycan array binding signal (z-score) [5]: -0.262
- glycan array binding signal (z-score) [6]: -0.09
- glycan array binding signal (z-score) [7]: -0.093
- glycan array binding signal (z-score) [8]: -0.458
- glycan array binding signal (z-score) [9]: -0.355
- glycan array binding signal (z-score) (Gal3S(b1-3)GalNAc): -0.242
- glycan array binding signal (z-score) (Gal3S(b1-3)GlcNAc): -0.194
- glycan array binding signal (z-score) [10]: -0.177
- glycan array binding signal (z-score) (Gal3S(b1-4)Glc): -0.187
- glycan array binding signal (z-score) (Gal3S(b1-4)Glc6S): 2.59
- glycan array binding signal (z-score) (Gal3S(b1-4)GlcNAc): -0.103
- glycan array binding signal (z-score) (Gal3S(b1-4)GlcNAc6S): 1.81
- glycan array binding signal (z-score) [11]: -0.223
- glycan array binding signal (z-score) (Gal3S4S(b1-4)GlcNAc): 3.89
- glycan array binding signal (z-score) (Gal3S6S(b1-4)GlcNAc): 0.262
- glycan array binding signal (z-score) (Gal3S6S(b1-4)GlcNAc6S): 6.6
- glycan array binding signal (z-score) (Gal4S(b1-4)GlcNAc): -0.043
- glycan array binding signal (z-score) (Gal4S6S(b1-4)GlcNAc): 1.34
- glycan array binding signal (z-score) (Gal6S(b1-4)Glc): -0.063
- glycan array binding signal (z-score) (Gal6S(b1-4)Glc6S): 6.38
- glycan array binding signal (z-score) (Gal6S(b1-4)GlcNAc): -0.156
- glycan array binding signal (z-score) (Gal6S(b1-4)GlcNAc6S): 3.27
- glycan array binding signal (z-score) (GalNAc(a1-3)Gal): -0.444
- glycan array binding signal (z-score) (GalNAc(a1-3)GalNAc): -0.345
- glycan array binding signal (z-score) (GalNAc(b1-3)Gal): -0.354
- glycan array binding signal (z-score) [12]: -0.373
- glycan array binding signal (z-score) (GalNAc(b1-3)GalNAc): -0.429
- glycan array binding signal (z-score) (GalNAc(b1-4)GlcNAc): -0.336
- glycan array binding signal (z-score) (Glc(a1-4)Glc): -0.356
- glycan array binding signal (z-score) (Glc(a1-6)Glc(a1-6)Glc): -0.181
- glycan array binding signal (z-score) (Glc(b1-4)Glc): -0.07
- glycan array binding signal (z-score) (Glc(b1-6)Glc): -0.2
- glycan array binding signal (z-score) (GlcA(b1-3)Gal): -0.096
- glycan array binding signal (z-score) (GlcA(b1-3)GlcNAc): -0.264
- glycan array binding signal (z-score) (GlcA(b1-6)Gal): 0.126
- glycan array binding signal (z-score) [13]: -0.273
- glycan array binding signal (z-score) [14]: -0.163
- glycan array binding signal (z-score) [15]: -0.155
- glycan array binding signal (z-score) [16]: -0.316
- glycan array binding signal (z-score) (GlcNAc(b1-3)Gal): -0.322
- glycan array binding signal (z-score) [17]: -0.326
